Laboratory results taken from the supplement of paper PMC10723795.
Counter-ions that a name gives are not always drawn. The list shows a part of the results.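 The calls were made as follows: active = more than 2 SD below the DMSO mean: under 0.85 at 10 µM or 0.885 at 1 µM; inactive = the rest.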 Repeats are few or missing, and single values can be far off.

System: RPE1
Assay: nucleolar normality score relative to DMSO (fraction of DMSO control); RPE1 is a non-cancer human cell line; higher = more normal nucleoli (less nucleolar stress)
Details: 24 h
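Also: fixed cells immunolabelled for nucleolin and UBF, 40 image fields per well in 384-well plates, per-cell score = nucleolin nucleolar/nucleoplasm intensity ratio divided by the matching UBF ratio.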

C[C@]12C=CC(=O)C=C1CC[C@@H]1[C@@H]2C(=O)C[C@@]2(C)[C@H]1CC[C@]2(O)C(=O)CO [Prednisone]
nucleolar normality score (1 µM): inactive: 0.916
nucleolar normality score (10 µM): inactive: 0.902

COc1cc2nccc(Oc3ccc(NC(=O)Nc4ccc(F)cc4F)c(F)c3)c2cc1OC
nucleolar normality score (1 µM): inactive: 1.03
nucleolar normality score (10 µM): inactive: 1.07

CCOC(=O)NCCCC(=O)NCCc1ccccc1
nucleolar normality score (1 µM): inactive: 0.971
nucleolar normality score (10 µM): inactive: 0.961

CCC[C@H](NC(=O)/C(C#N)=C/c1cccc(Br)n1)c1ccccc1 [Degrasyn (WP1130)]
nucleolar normality score (1 µM): inactive: 1.03
nucleolar normality score (10 µM): inactive: 1.07

COc1cc2c(cc1NS(=O)(=O)c1ccc(Br)cc1C)n(C)c(=O)n2C
nucleolar normality score (1 µM): inactive: 0.919
nucleolar normality score (10 µM): inactive: 1.02

CCc1c2c(nc3ccc(OC(=O)N4CCC(N5CCCCC5)CC4)cc13)-c1cc3c(c(=O)n1C2)COC(=O)[C@]3(O)CC [Irinotecan HCl Trihydrate]
nucleolar normality score (1 µM): inactive: 1.04
nucleolar normality score (10 µM): inactive: 1.08

O=C(NC(NC(=S)Nc1ccc(F)c([N+](=O)[O-])c1)C(Cl)(Cl)Cl)C(c1ccccc1)c1ccccc1 (stereo unspecified)
nucleolar normality score (1 µM): inactive: 0.935
nucleolar normality score (10 µM): inactive: 0.996

Oc1cc(CNC(=S)/C=C/c2cc(O)c(O)c(Br)c2)cc(O)c1O
nucleolar normality score (1 µM): inactive: 0.969
nucleolar normality score (10 µM): inactive: 1.02

Cn1cc(C2=C(c3ccc(Cl)cc3Cl)C(=O)NC2=O)c2ccccc21
nucleolar normality score (1 µM): inactive: 0.989
nucleolar normality score (10 µM): inactive: 0.98

CCOc1cc2ncc(C#N)c(Nc3ccc(OCc4ccccn4)c(Cl)c3)c2cc1NC(=O)/C=C/CN(C)C [Neratinib (HKI-272)]
nucleolar normality score (1 µM): inactive: 1.04
nucleolar normality score (10 µM): active: 0.778

Cc1cc(NC(=O)c2cccc(NC(=O)/C=C/CN(C)C)c2)ccc1Nc1nccc(-c2cccnc2)n1
nucleolar normality score (1 µM): inactive: 1.05
nucleolar normality score (10 µM): inactive: 1.06

FC(F)(F)c1ccc(/C=C/c2nc(COc3ccc(CCCCn4ccnn4)cc3)co2)cc1 [Mubritinib (TAK 165)]
nucleolar normality score (1 µM): inactive: 1.01
nucleolar normality score (10 µM): inactive: 1.08

CC(=O)OCC(=O)[C@@]1(O)CC[C@H]2[C@@H]3CCC4=CC(=O)CC[C@]4(C)[C@H]3C(=O)C[C@@]21C [Cortisone acetate]
nucleolar normality score (1 µM): inactive: 1.04
nucleolar normality score (10 µM): inactive: 0.896

CC(C)(C)c1cc(C(=O)C(C#N)=NNc2cccc(Cl)c2)no1
nucleolar normality score (1 µM): inactive: 0.954
nucleolar normality score (10 µM): inactive: 0.962

CCc1nc(C(N)=O)c(Nc2ccc(N3CCC(N4CCN(C)CC4)CC3)c(OC)c2)nc1NC1CCOCC1 [Gilteritinib (ASP2215)]
nucleolar normality score (1 µM): active: 0.83
nucleolar normality score (10 µM): active: 0.774

CNS(=O)(=O)Nc1nccc(Cc2c(C)c3ccc(Oc4ncccn4)cc3oc2=O)c1F
nucleolar normality score (1 µM): inactive: 0.918
nucleolar normality score (10 µM): inactive: 1.08

CN[C@@H](C)C(=O)N[C@H](C(=O)N1CCC[C@H]1C(=O)Nc1snnc1-c1ccccc1)C1CCCCC1
nucleolar normality score (1 µM): inactive: 1.01
nucleolar normality score (10 µM): inactive: 1.07

CN1CCN(c2cccc(Nc3nc4c(-c5ccc(S(C)(=O)=O)cc5)cccn4n3)c2)CC1
nucleolar normality score (1 µM): inactive: 1
nucleolar normality score (10 µM): inactive: 1.01

Nc1nccc(Oc2ccc3c(C(=O)Nc4cccc(C(F)(F)F)c4)cccc3c2)n1
nucleolar normality score (1 µM): inactive: 1.01
nucleolar normality score (10 µM): inactive: 1.05

O=C(O)CCN1C(=O)/C(=C/c2ccc(-c3ccc([N+](=O)[O-])cc3)o2)SC1=S
nucleolar normality score (1 µM): inactive: 1.01
nucleolar normality score (10 µM): inactive: 1

Cc1cc(N2C[C@@H](C)N[C@@H](C)C2)ncc1-c1ccc(-c2nc3c(ccn3C)c(=O)[nH]2)cc1
nucleolar normality score (1 µM): inactive: 1.05
nucleolar normality score (10 µM): inactive: 1.07

CNC(=O)c1nn(C)c2c1C(C)(C)Cc1cnc(Nc3ccc(N4CCN(C)CC4)cc3)nc1-2
nucleolar normality score (1 µM): active: 0.737
nucleolar normality score (10 µM): active: 0.649

COc1ccc(C=Cc2cc(OC)c(OC)c(OC)c2)cc1OP(=O)(O)O [Fosbretabulin (Combretastatin A4 Phosphate (CA4P)) Disodium]
nucleolar normality score (1 µM): inactive: 1.01
nucleolar normality score (10 µM): inactive: 1.04

CCN1C(=O)CNc2ncc(-c3ccc(-c4nc[nH]n4)nc3C)nc21
nucleolar normality score (1 µM): inactive: 0.917
nucleolar normality score (10 µM): inactive: 0.9

C[C@@H]1COCCN1c1cc(C2([S@](C)(=N)=O)CC2)nc(-c2cc[nH]c3nccc2-3)n1
nucleolar normality score (1 µM): inactive: 0.922
nucleolar normality score (10 µM): inactive: 1.04

C[n+]1cccc(C(=O)[O-])c1 [Trigonelline Hydrochloride]
nucleolar normality score (1 µM): inactive: 1.05
nucleolar normality score (10 µM): inactive: 0.916

O=c1[nH]c(=O)n([C@H]2C[C@H](O)[C@@H](CO)O2)cc1F [Floxuridine]
nucleolar normality score (1 µM): inactive: 0.97
nucleolar normality score (10 µM): inactive: 0.979

O=C1C(=O)N(Cc2ccc(Cl)c(Cl)c2)c2ccccc21 [Apoptosis Activator 2]
nucleolar normality score (1 µM): active: 0.855
nucleolar normality score (10 µM): inactive: 0.858

O=C(NC1CCOCC1)c1ccc(-c2cc(-c3c[nH]nc3-c3ccccn3)ccn2)cc1
nucleolar normality score (1 µM): inactive: 1.02
nucleolar normality score (10 µM): inactive: 1.08

O=C1c2cccc(O)c2C(=O)c2c(O)cc(CO)cc21 [Aloe-emodin]
nucleolar normality score (1 µM): inactive: 1.09
nucleolar normality score (10 µM): inactive: 1.06

NC(=O)c1ncn([C@@H]2O[C@H](CO)[C@@H](O)[C@H]2O)c1N [AICAR (Acadesine)]
nucleolar normality score (1 µM): inactive: 1.06
nucleolar normality score (10 µM): inactive: 1.1

CC1=C(/C=C/C(C)=C/C=C/C(C)=C/C(=O)Nc2ccc(O)cc2)C(C)(C)CCC1 [Fenretinide]
nucleolar normality score (1 µM): inactive: 1.04
nucleolar normality score (10 µM): inactive: 1.07

CC(c1cc2ccccc2s1)N(O)C(N)=O (stereo unspecified) [Zileuton]
nucleolar normality score (1 µM): inactive: 0.92
nucleolar normality score (10 µM): inactive: 1.1

CC1=C(C(=O)OC2CCCCC2)C(c2ccc([N+](=O)[O-])cc2)C2=C(CC(C)(C)CC2=O)N1 (stereo unspecified)
nucleolar normality score (1 µM): inactive: 0.964
nucleolar normality score (10 µM): inactive: 1.06

O=C(O)CSc1cc(NS(=O)(=O)c2ccc(Br)cc2)c2ccccc2c1O
nucleolar normality score (1 µM): inactive: 0.999
nucleolar normality score (10 µM): inactive: 1.06

COc1cc(N2CCN(C)CC2)ccc1Nc1nccc(-c2cn(C)c3cnccc23)n1
nucleolar normality score (1 µM): active: 0.867
nucleolar normality score (10 µM): inactive: 0.916

COc1cc2c(cc1O)CC[C@@H]1[C@@H]2CC[C@]2(C)[C@@H](O)CC[C@@H]12 [2-Methoxyestradiol (2-MeOE2)]
nucleolar normality score (1 µM): inactive: 0.992
nucleolar normality score (10 µM): inactive: 1.07

NC(=O)c1cccc2[nH]c(-c3ccc(C4CCCN4)cc3F)nc12 (stereo unspecified)
nucleolar normality score (1 µM): inactive: 1.05
nucleolar normality score (10 µM): inactive: 1.08
